We go through 29 molecules from the supplement of paper PMC12632987.

In all, about 4,500 sequences were measured (“median log2 fold change of GCK-ALFA target abundance (FLAG IP / Myc IP barcode read proportion)”: median about 0.078, lowest 2% from about -0.6 on). The list shows a part of the results.

The labels stand for the following.
B1: GBRAP_160_4442 (protein)
chain: SEKLEKALKRIDEEAEFVKELVDEVSTEQFAKFLDAELGSVILELLEEGYISEETADKIFEIIDEAVATLLANPDMSKEEKKALIDETVEKIKEVIKEDF
B2: GBRAP_48_5832 (protein)
chain: MEFDEELLKKLVEETVEEMKEVYEEAKEEGLSDEEILKMIRALLGDLALELEEAGYTKAADYLLKPENREEVAKKLKELFDEGKYEEAKEYLFNKLKEVE
B3: GBRAP_95_7041 (protein)
chain: EDLELAVESTAEVVEALVELGDREAARKAARRLLELLAEADPDKVRISLSEETARLIVEVARETYSREEAIELLEKLAQAATDERVKRLFLEAAEELRKE
B4: GBRAP_14_3805 (protein)
chain: EEERKKAVEEGVEEIKEIIEEILEDAPEEVREKVLELVEEAKKKIIEEKLNPDEVDELTKETVEKIKEIMEDLPQEVRDKVLAAVSTGFGEIILEIEELE
B5: GBRAP_117_2583 (protein)
chain: MEEKEKVKKELRETIREAGERVRAARSLSPEERERVLEEVRRRIREAVRRALEVLSEEEVEEIVEEELLSFDAEVYFEISLFVEEAIEEIREERRREAEE
B6: GBRAP_186_5381 (protein)
chain: EEELEEELDRIIDELEAQGYRVIVSYLEGLSLEETKEAMRRDAEAVAALSKETGEKWALVVVIRTKAEDVEPLREFAEELNKEYLEKSGVVVKAAIGSSD
B7: GBRAP_26_5479 (protein)
chain: IEELVRELLERLRALLEELLDPETAAAALAEATTIIIEAAERMEENKDNPELLEKIVEEAVEELREELKRLGVSEEKAEKIVELAREGLEEIREKILEES
B8: GBRAP_95_7069 (protein)
chain: SEDQEIADALADSLALYAEAGLAEHAARDLVALADEAKANPDLKVNFPATPEELRAALEKLAEIEPRETAIEVADILAKHAADPEHKKALLETRDRFLAE
B9: GBRAP_95_7024 (protein)
chain: EDDQLLVDSLAEVLDTYVDLGQEEEAERAARRLVAAMKEHGILPLPKDISVESAKIILDVAAEELDLAELEALAEQIIKATKNEEVKKYAAEKIAAKKAA
B10: GBRAP_160_4859 (protein)
chain: SAKLKEALAILEEAKAEALELIDESPASQHAAFAEAVAGDALLELIEKGLINEELEEKLAEIIDKLRARLRAAADASTEEHKALVEEAFEEMKKAVKELS
B11: GBRAP_52_5923 (protein)
chain: SEEEAKARAEAILEAALAGKKEEMEALIKEAVETFSDEEIETMIEELARLVAEKGPEHYDVFAEIMDLLLDAAEEAGRDVELIDYAIARGFGILYDAEQA
B12: GBRAP_184_5030 (protein)
chain: KVIEETIKADNLEELKAKLAELAEKVKDSKADLIVLLEIKNPTKEMVTTAIEMLGEIKKKGYASSVTVGFAEELSEELIDVAIETAKKEGVKVVLPISDE
B13: GBRAP_137_3681 (protein)
chain: MKVTIRIEKDGDLVEITVTIHDKEKGEEVAEKIEDLAVEVGALAISVEKEEDGTVTVTIWVPKEKEEELMKGILEILKDADEIEIIREENGKITKEVIKK
B14: GBRAP_95_7045 (protein)
chain: EDLALAAESDAEVLETAVDLGDKEAAERAAERLLELLLELPPDKVKLDLSVESVKVIIEVAKKKLDKETAIEALEKLAKFQTNEEAKKVIEEAIKELKAE
B15: GBRAP_48_5819 (protein)
chain: PVRDEEELEALVAETVEEMAELYEEAKAAGLSDEEILRMIRAELGDLALELEEAGYTAAADYLLDPENRDALAAELLAFFKAGDLEAAREHLLARLRAAE
B16: GBRAP_125_3039 (protein)
chain: SEEEQLEALARLARLLGLSEEEVEELVALARKHGIKGALIALLMAEGLEDLADLVEKLTDEQVARVLKELLAWLEAHPDITAEEAVAKLRELAKEALAAE
B17: GBRAP_11_2626 (protein)
chain: KKEILEEMAELAERLAELLERLLREGVDNEELRKEARETLERLEELVEKHGDEADKRLVRILRESFEESLEDEENAEAHLREALAAARVLAGNFLLDIEE
B18: GBRAP_78_6727 (protein)
chain: ELEEKIDKAIEHLNRAARLLLTLPRELSEDALGELVDAISDLVEAEEEGGDLEKLEEAKEHLERALALLEAKKDPRLAPAIAEVKAALELLEEAIKLAKE
B19: GBRAP_95_7022 (protein)
chain: EDDQLAAESDAEVLETAVDLGDEETARRAARRLAELVAADPAVRFPADLSPAAVRILIEAALEAFGKEEAAALLARLAAAAADPAVRALARAALAAVRAA
B20: GBRAP_125_3006 (protein)
chain: DLETIIALIRALLRRAGESESNIAEAERLAREYGGKNTLIAVALALGAEALADAAARLTDEQLIAVAREAIAWLEANPDLTPEEALARVLALAEAALAAA
B21: GBRAP_78_6617 (protein)
chain: ESKEEIERLLEEAARLLREVRRLEPAHADAAAEAEVLVGTALYMVDTGEESKEELEETVEEALEALEELRELLADADPRVQELVRRAEELVKEALELLRK
B22: GBRAP_184_5351 (protein)
chain: TTRSVVIEADTVEAAIAQLRAAVAAAKAAGETLELTIDVPINTVEDAKALMAALAEGAKAGVLKGTVGILNVSSDDEIIDTLVDGADEAGIRLVLALDEE
B23: GBRAP_78_6683 (protein)
chain: EVEEELDKAIEHLGKAAKILNKIGTEEALDLLGEVIDAAATVEEAHFGEANLEELEEALKRVKEALKEAKKIDTPEAKQAAKELEKAKEHLEKAIKLLKK
B24: GBRAP_9_7120 (protein)
chain: NPELIKKMAEVAKDMVEDVAEVVPELTEEERERFLKRIEELEKELLADKTATPEEAAERFKALVEEIRKEVEAKVGPELAAMVRAIADTALEEIEEIVEE
B25: GBRAP_125_3019 (protein)
chain: SREELVADLERIAAALGLSPADVAELGRLAREHGLKGALIALALALGEEEIAELLEKLSEEEVAEVVRRLAAWLDAHPDATPEEVRARLREIAREAVAAS
B26: GBRAP_78_6717 (protein)
chain: KLEELLDKAIETLNEAAKLALTLPEEKANEVLDLLVEAINLLEEILEPGVSKEEAIKLLKEAIELLKKAKELLGDSDPELKAAVEKALELAKEALKIAEE
B27: GBRAP_78_6700 (protein)
chain: KIEELIDKAIEELTKAARLAAKLPEEASTEILDLLVDALTDLEESEENGFDLEKLERALEEAEKALKLAKKLKTPTAKELAKELEKAIKYLKEAIKLKKE
B28: GBRAP_14_3830 (protein)
chain: KPTPEEIIKETLEEIAKELIKMFPEKKEEIEKGTKEILEEVLKLLKETGDVEKAFEKLREMSKKLVDEILADESETDKAAAKALVDGLVAEGELRYEELK
B29: GBRAP_11_2825 (protein)
chain: KKEKLKELAEKAEEIAEKLEALIASGAPTEEELEELRKEAKELLKLTKEHGTPAQTKLAEILLEEIEEAIANPEKREQYLQEALAFARVLEGQYLLDADE

In this assay the target is GABARAP, O95166. In words: median log2 fold change of GCK-ALFA target abundance (FLAG IP / Myc IP barcode read proportion) (log2 ratio); each designed protein is fused to an ALFA-tag nanobody in HEK293 cells to bring the named protein to FLAG-tagged glucokinase (GCK); Myc marks an untargeted standard; higher = target protein stabilised (more abundant). The following applies: target protein: 3xFLAG-MCP-GCK-ALFA reporter; HEK293 landing pad (RPLP). The gist of the method: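 Binders fused to an ALFA nanobody were recombined as a library into HEK293 landing-pad cells, which were induced with 2 μg mL^−1 doxycycline and then transfected to express a FLAG-tagged target and a Myc-tagged standard. After 48 h, circular RNA barcodes recovered by anti-FLAG and anti-Myc immunoprecipitation of lysates were reverse transcribed, amplified and sequenced. Each binder's target abundance is the median log2 ratio of FLAG to Myc barcode read proportions, from barcodes present at ≥10^−7 in both replicates, binders carrying ≥3 barcodes per replicate, a 10^−6 pseudocount and pooled replicates.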
Sequence of GABARAP, O95166 (O95166 whole entry, the tested form may be a part): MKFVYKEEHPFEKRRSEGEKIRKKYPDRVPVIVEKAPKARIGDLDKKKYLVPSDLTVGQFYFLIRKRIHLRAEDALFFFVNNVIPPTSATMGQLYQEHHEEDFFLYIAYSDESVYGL
For B1, the “median log2 fold change” value was determined as 0.0293.

For the molecule B2, the “median log2 fold change” value stood at 0.0934.

As for B3, the “median log2 fold change” value turned out to be 0.114.

In the case of B4, the “median log2 fold change” value worked out at 0.189.

For B5, the “median log2 fold change” value came to 0.00718.

With B6, the “median log2 fold change” value amounted to 0.0301.

Take B7: the “median log2 fold change” value was 0.237.

As for B8, the “median log2 fold change” value came to 0.354.

For the molecule B9, the “median log2 fold change” value worked out at 0.33.

As to B10, the “median log2 fold change” value was -0.134.

For B11, the “median log2 fold change” value is -0.151.

B12: the “median log2 fold change” value is -0.00468.

Take B13: the “median log2 fold change” value was 0.484.

B14: the “median log2 fold change” value worked out at 0.0702.

Turning to B15, the “median log2 fold change” value was -0.0194.

As for B16, the “median log2 fold change” value was found to be 0.0672.

In the case of B17, the “median log2 fold change” value is -0.0112.

Regarding B18, the “median log2 fold change” value is 0.0137.

Consider B19, for which the “median log2 fold change” value came to 0.0562.

With B20, the “median log2 fold change” value is -0.501.

Regarding B21, the “median log2 fold change” value was -0.466.

For B22, the “median log2 fold change” value came out at 0.0873.

With B23, the “median log2 fold change” value stood at 0.0633.

B24: the “median log2 fold change” value is -0.0499.

Consider B25, for which the “median log2 fold change” value was 0.105.

As to B26, the “median log2 fold change” value was determined as 0.211.

Turning to B27, the “median log2 fold change” value is 0.0998.

As for B28, the “median log2 fold change” value came to 0.269.

For the molecule B29, the “median log2 fold change” value was determined as 0.0662.
